# Out of some 43,000 compounds screened, about 200 (0.47%) were called active. Inconclusive results (about 12%) are left out. Calls follow the shape of the dose curve; as a rule, active = well fitted cell-killing curve with a large enough effect; inconclusive = small, poorly fitted or top-dose-only effect, or effect the other way; inactive = flat fitted curve, though single readings scatter. The list shows a part of the results.
# Assay: Cell viability qHTS assay in S16 Pmp22-F2sN cells; also: nearly all actives have a fitted effect of over 65% in size
# Conditions: S16 Pmp22-F2sN Schwann cells (luciferase reporters placed in the Pmp22 gene) viability, CellTiter-Glo, 24 h; series mostly up to 57.5 µM; activity change, negative = cytotoxicity: at the top concentration
# In short: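 Rat S16 Schwann reporter line, 24 h treatment with library compounds delivered at 23 nL per well. Cell viability by CellTiter-Glo luminescence.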
# % is scaled to controls: 0 for no effect and ±100 for the full control effect.
row,SMILES,"activity change, negative = cytotoxicity"
1,CCOc1ccc(NC(=O)c2oc3ccccc3c2NC(=O)C2CCCCC2)cc1,inactive: 22.8%
2,Cc1oc2c(c1C(=O)Nc1ccc(F)c(F)c1)C1=NCCN1C=N2,inactive: -20.2%
3,CCc1cccc(CC)c1NC(=O)CCS(=O)(=O)c1ccc(Br)s1,inactive: -3.4%
4,COc1cccc(-c2nnc(SCC(=O)N3CCCCC3)o2)c1,inactive: -2.57%
5,CCOC(=O)c1cccc(NC(=O)c2ccc3c(c2)nnn3CC)c1,inactive: 1.56%
6,COc1ccc(CNC(=O)C2CCCN(S(=O)(=O)N(C)c3ccc(F)cc3)C2)cc1OC (centres undefined),inactive: -4.5%
7,O=C(OCc1cc(=O)n2nc(-c3cccs3)sc2n1)c1cccc(Cl)c1,inactive: -13%
8,COc1cccc(CNS(=O)(=O)c2ccc3[nH]c4c(c3c2)CCCCC4)c1,inactive: -1.42%
9,Cc1ccc(C)c(N2CCN(C(=O)c3ccc(-c4nc(COc5ccccc5)c(C)o4)cc3)CC2)c1,inactive: 1.26%
10,CCOc1ccc(NC(=O)c2ccc3[nH]c(C)cc(=O)c3c2)cc1,inactive: 5.16%
11,COc1ccc2c(CNCCc3ccccc3C)c(C(=O)O)n(Cc3ccccc3C)c2c1,inactive: 9.43%
12,Cc1ccccc1C(=O)Nc1cccc(OCc2cc(=O)n3c4c(sc3n2)CCCC4)c1,inactive: -3.9%
13,Cc1ccc(C)c(CNS(=O)(=O)c2ccc3c(c2)C(C)(C)C(=O)N3C)c1,inactive: 0.995%
14,COc1ccc2c(c1)c1c(c(=O)n(-c3ccc(C)cc3)c(=O)n1CC(=O)c1ccc(Cl)cc1)n2C,inactive: 4.41%
15,COc1ccc(NC(=O)Cn2cc(S(=O)(=O)N3CCC(C)CC3)c3ccccc3c2=O)cc1Cl,inactive: -2.28%
16,CC1CCN(S(=O)(=O)c2ccc3c(c2)N(CC(=O)NCCN(C)C)C(=O)CO3)CC1,inactive: 12.5%
17,COc1ccc(CN(Cc2ccco2)C(=O)COc2ccc(Cl)cc2C)cc1,inactive: -4.27%
18,CCOC(=O)c1c(S(=O)(=O)N2CCCC(C(=O)NCc3ccc(F)cc3)C2)c(C)n(CC)c1C (centres undefined),inactive: -0.38%
19,CC(=O)N1CCc2c(sc3c2c(=O)n(-c2cccc(Cl)c2C)c(=O)n3Cc2ccccc2C)C1,inactive: 4.73%
20,Cc1ccc2c(c1)cc1c(=O)n(CC(=O)N(C)c3ccccc3)nc(C)n12,inactive: 11.6%
21,CCOCCCNC(=O)C1CCCN(c2ncnc3onc(C)c23)C1 (centres undefined),inactive: -5.26%
22,N#Cc1c(-c2ccccc2)cc(-c2ccccc2)nc1SCC(O)CS(=O)(=O)Cc1ccccc1 (centres undefined),inactive: -4.37%
23,CCOc1ccc(NC(=O)c2cnn(-c3ccccc3)c2-n2cccc2)cc1,inactive: 7.42%
24,CCN(CC)C(=O)CSc1nc2c(c(=O)n(C)c(=O)n2C)n1Cc1ccccc1,inactive: 13.6%

row,SMILES,"activity change, negative = cytotoxicity"
1,CNC(=O)C1CCN(C(=O)N2CC(C)Oc3ccc(Cl)cc32)CC1 (centres undefined),inactive: 2.37%
2,O=C(CCS(=O)(=O)c1cc(Br)cc2c1N(C(=O)C1CC1)CC2)N1CCN(c2ccccc2)CC1,inactive: -8.68%
3,O=C(c1ccc2c(c1)N(Cc1cccc(Cl)c1)C(=O)c1ccccc1S2(=O)=O)N1CCCC1,inactive: -9.51%
4,Cc1ccccc1Cn1nnc2c(=O)[nH]c(C3CCCN(C(=O)c4ccc(C(C)(C)C)cc4)C3)nc21 (centres undefined),inactive: -15.9%
5,CCOC(=O)C1CCCN(C(=O)c2ccccc2NC(=O)c2nsc3ccccc23)C1 (centres undefined),inactive: -0.952%
6,Cc1nnc2c3ccccc3nc(N3CCN(c4ccccc4)CC3)n12,inactive: 0.843%
7,Cc1cc(C)cc(N2C(=O)CSC23C(=O)N(CC(=O)NC2CCCCC2)c2ccccc23)c1 (centres undefined),inactive: -11.1%
8,COc1ccc(C(=O)Nc2cccc(OCc3cc(=O)n4c5c(sc4n3)CCCC5)c2)cc1OC,inactive: 0.241%
9,CCOC(=O)c1ccccc1NC(=O)N1CCCn2nc(C)cc21,inactive: 2.13%
10,CC(=O)N1CCCc2cc(S(=O)(=O)N3CCC(C(=O)N(C)C4CCCCC4)CC3)ccc21,inactive: -17.9%
11,Cc1ccccc1C(=O)Nc1nnc(S(=O)(=O)N2CCc3ccccc32)s1,inactive: -2.14%
12,CCc1ccc(NC(=O)Cn2c(=O)n(Cc3ccc(C)cc3)c(=O)c3cccnc32)cc1,inactive: -0.37%
13,COc1ccc(NC(=O)c2sc3nc4n(c(=O)c3c2C)CCC4)c(OC)c1,inactive: 13.1%
14,CCCCOc1ccccc1NC(=O)CC1Sc2ccccc2NC1=O (centres undefined),inactive: -2.16%
15,COc1ccccc1Cc1nc2ccccc2nc1SCC(=O)N1CCCCC1,inactive: -2.63%
16,Cc1noc(/C=C/c2ccccc2F)c1S(=O)(=O)N1CCC(C(=O)NCc2ccco2)CC1,inactive: -12.4%
17,CCOC(=O)N1CCN(c2ncc3c(n2)CC(c2ccc(OC)c(OC)c2)CC3=O)CC1 (centres undefined),inactive: -2.02%
18,COc1ccc(Br)cc1CNC(=O)C1CCN(c2nnc(-n3cccc3CNc3ccc(C)cc3)s2)CC1,inactive: -1.38%
19,CCn1cc(C(=O)N(C)c2cc(C)ccc2C)c2cc(OC)c(OC)cc2c1=O,inactive: 9.36%
20,O=S(=O)(Nc1nc2n(n1)C(c1ccc(F)cc1)C=C(c1ccc(Cl)cc1)N2)c1ccccc1 (centres undefined),inactive: 7.95%
21,CSc1nn(CC(=O)Nc2ccc(C)cc2C)c(N)c1S(=O)(=O)c1ccc(Cl)cc1,inactive: 17.4%
22,Cc1ccc(NS(=O)(=O)c2ccc3nc(-c4ccccc4)[nH]c3c2)cc1Cl,inactive: -29.8%
23,CCOc1ccccc1NC(=O)C1CCCN(S(=O)(=O)c2cccs2)C1 (centres undefined),inactive: 13.5%
24,COc1cc2c(C(=O)N3CCN(c4ccc(F)cc4)CC3)cn(CC(C)C)c(=O)c2cc1OC,inactive: -17.1%

row,SMILES,"activity change, negative = cytotoxicity"
1,COc1cc(NC(=O)CSc2cc(=O)n(C)c3ccccc23)cc(OC)c1OC,inactive: 0.986%
2,CC(NCc1ccc2c(c1)n(C)c(=O)n2C)c1ccccc1 (centres undefined),inactive: 1.57%
3,COc1ccc(N2CCN(C(=O)c3ccc4c(c3)CCN4S(=O)(=O)c3ccccc3)CC2)cc1,inactive: -5.36%
4,CCC12CN3CC(CC)(CN(C1)C3c1c[nH]c3ccccc13)C2=O (centres undefined),inactive: -1.82%
5,Cc1ccc(-c2cn3c(n2)sc2cc(C(=O)NC4CCCCCC4)ccc23)cc1,inactive: 2.25%
6,Cc1cc(C)n2nc(CNC(=O)c3cccc(N(C)C)c3)nc2n1,inactive: -5.24%
7,CCOc1ccc(CCNC(=O)CCn2c(=O)c3cccn3c3ccc(F)cc32)cc1OCC,inactive: 9.03%
8,COc1ccc(-c2nc3ccccc3o2)cc1NC(=O)c1cccc2c(Cl)cccc12,inactive: 10.9%
9,COc1ccc(NC(=O)CC2C(=O)N(c3ccc(OC)cc3)C(=O)N2Cc2ccc(OC)c(OC)c2)cc1 (centres undefined),inactive: -0.477%
10,CCOc1ccc(N2CC(NC(=O)Cc3cccs3)CC2=O)cc1 (centres undefined),inactive: -0.764%
11,CN(Cc1ccccc1)c1ccc2cc(S(=O)(=O)N3CCCCC3)ccc2n1,inactive: 12.4%
12,Cc1ccc(C)c(CSc2cn(CC(=O)N3CCCC3)c3ccccc23)c1,inactive: -17.6%
13,COc1ccc2cc(-c3nc(-c4ccc(N(C)C)cc4)no3)c(=O)oc2c1,inactive: 2.05%
14,CCOc1ccc(NC(=O)CCc2c(C)nc3c4c(C)cc(C)nc4nn3c2C)cc1,inactive: -5.82%
15,Cc1nn(C)c2c1c(-c1ccccc1)cc(=O)n2Cc1ccc(F)cc1Cl,inactive: 2.82%
16,CCN(CC)C(=O)Cn1c(=O)n(-c2ccc(Cl)cc2)c(=O)c2c3c(sc21)CCCCC3,inactive: 18.4%
17,O=C(CSc1n[nH]c(-c2ccccc2Cl)n1)NCCCc1ccccc1,inactive: 4.91%
18,CCOc1ccc(NC(=O)CSC2=Nc3ccccc3C3=NC(CC(=O)NCc4cccs4)C(=O)N23)cc1 (centres undefined),inactive: -1.81%
19,COc1cc(-c2cc(OC)c3c(C)oc(C)c3c(=O)c2)ccc1OC(=O)c1ccc(C)cc1,inactive: -6.48%
20,CC(=O)c1cccc(NC(=O)C2CCN(c3ncnc4c3nc3n4CCCCC3)CC2)c1,inactive: -23%
21,CC1=C(c2ccc(C)c(C)c2)S(=O)(=O)N=C1N1CCC(C(=O)NC(C)c2ccccc2)CC1 (centres undefined),inactive: -0.391%
22,CCc1ccc2oc(C(=O)N(Cc3ccc(N(C)C)cc3)Cc3ccco3)c(C)c2c1,inactive: -2.66%
23,CC(CCc1ccccc1)NC(=O)Cn1c(=O)nc(-c2ccccc2)c2cc(Cl)ccc21 (centres undefined),inactive: 4.85%
24,O=C(NCc1ccc(F)cc1Cl)c1cc(=O)[nH]c2ccc(S(=O)(=O)N3CCCCC3)cc12,inactive: 1.23%

row,SMILES,"activity change, negative = cytotoxicity"
1,COc1ccc(-c2nc3scc(CCNS(=O)(=O)c4ccc5c(c4)OCCO5)n3n2)cc1OC,inactive: -7.06%
2,COc1ccc(CNC(=O)Cc2c(C(=O)O)c(C)cn2C)cc1,inactive: 3.62%
3,O=C(Cn1cc(C(=O)C2CCCCC2)c2ccccc21)Nc1ccccc1Cl,inactive: -22.5%
4,Cc1c(-c2ccccc2)c(=O)oc2ccc(OC(=O)N3CCOCC3)cc12,inactive: -17.7%
5,CCOc1ccc(C(=O)Nc2c(C(=O)Nc3ccccc3OC)oc3ccccc23)cc1OCC,inactive: -2.18%
6,Cc1cc(C)cc(OCCSc2nc3ccc(NC(=O)c4cccs4)cc3s2)c1,inactive: -0.106%
7,COc1ccc(C2c3[nH]c4ccccc4c3CCN2C(=O)CCC2CCCC2)cc1 (centres undefined),inactive: -4.34%
8,COc1ccc(CNC(=O)Cc2c(C)c3cc4c(C)coc4cc3oc2=O)cc1OC,inactive: 8.17%
9,CC(Sc1nccn1C)C(=O)Nc1ccccc1C#N (centres undefined),inactive: 4.14%
10,CCN(CC)c1ccc(NC(=O)c2cc(C)nc3c2c(C)nn3-c2ccc(C)cc2)c(C)c1,inactive: 11%
11,CCOC(=O)c1ccc(NC(=O)c2cnn3c(=O)c4c(n(CC)c23)CCN(Cc2ccc(OC)cc2)C4)cc1,inactive: 0.5%
12,Cc1cn2c(=O)cc(COC(=O)c3ccc(NC(=O)c4ccc(F)cc4)cc3)nc2s1,inactive: -29.1%
13,CC1CCN(S(=O)(=O)N2CCC(C(=O)NCc3ccccc3Cl)CC2)CC1,inactive: -5.22%
14,COC(=O)c1ccc(Nc2ncnc3c2cnn3C)cc1,inactive: 0.956%
15,COc1ccc(N2CCN(C(=O)CSc3nc(-c4ccc(C(C)C)cc4)no3)CC2)cc1,inactive: -7.79%
16,O=C(CNC(=O)c1ccccc1)OCc1cc(=O)n2nc(C3CCCCC3)sc2n1,inactive: 11.9%
17,COc1ccc(-c2nc3scc(CCNS(=O)(=O)c4ccc(Oc5ccccc5)cc4)n3n2)cc1OC,inactive: -3.12%
18,CCN(CC)C(=O)c1sc2c(c1C)c(=O)n(-c1ccc(C)c(C)c1)c(=O)n2Cc1cc(=O)n2ccccc2n1,inactive: 2.01%
19,Cc1nc(-c2ccc(S(=O)(=O)Nc3cc(Cl)ccc3C)cc2)co1,inactive: 13.5%
20,COc1ccc(Cn2cc(S(=O)(=O)c3ccc(C)cc3)c(=O)c3cc(F)ccc32)cc1,inactive: 0.352%
21,COc1ccc2c(CNCCc3ccc(SC)cc3)c(C(=O)O)n(Cc3ccc(F)cc3)c2c1,inactive: 4.52%
22,COc1ccc2c(c1)c(=O)c(C(=O)c1ccccc1)cn2CC(=O)Nc1ccc2c(c1)OCO2,inactive: 8.39%

# From PubChem BioAssay AID1508642 (National Center for Advancing Translational Sciences (NCATS), 2021)
